PubChem BioAssay (NCATS)
Where “and” joins values, the source holds several entries; their conditions need not be identical. Equal entries are not always repeated. The inconclusive results got no clear call from the source; some entries with a clear call stand among them for comparison. For part of these data: Potencies beside an inconclusive call are fits to weak or partial responses and may not hold up. For part of these data: A note “side channel” means that the fit belongs to a control or component signal, not to the main read-out. Calls of active or inactive are those of the source. Unless noted, calls come from the whole dose curve; as a rule, active = well fitted curve in the direction sought with a large enough effect; inconclusive = small, poorly fitted or top-dose-only effect, or another doubt; inactive = no such curve, though single readings can be large; an effect the other way counts as inactive or inconclusive.

What was measured:
[1] = Cell Viability - BJ (AID 421; calls by dose curve;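 note: potency is the fitted concentration of half-maximal effect; cells exposed to compound for 40 hours at 37 °C before readout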); conditions: BJ fibroblast viability, qHTS
Summary of the method: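 Luminescent ATP signal (CellTiter-Glo, 20 min at room temperature) served as the read-out of viable BJ cells after 40 hours of compound treatment. Responses were scaled between DMSO and 100 uM tamoxifen, and AC50 values were obtained by Hill modeling.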

[2] = Cell Viability - Jurkat (AID 426;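 active = dose-dependent loss of cell ATP signal giving a full or clear fitted curve, ranked by lower potency value; inconclusive = weak partial curve or response only at the top dose; inactive = no loss of viability signal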;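 note: potency is the fitted concentration of half-maximal effect; cells exposed to compound for 40 hours at 37 °C before ATP read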); conditions: qHTS
Summary of the method: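 Luminescent ATP read-out (CellTiter-Glo, 20 min at room temperature) after 40 hr compound exposure at 37 °C of Jurkat E6-1 cells, 5000/well. Decreased ATP taken as cytotoxicity; AC50 from standard Hill equation.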

[3] = Cell Viability - HepG2 (AID 433; calls by dose curve;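 note: potency is the fitted concentration of half-maximal effect; potency for ATP loss meaning cytotoxicity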); conditions: qHTS
Summary of the method: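 HepG2 cells, 1500 per well, treated 40 hr at 37 °C in complete medium; viability from intracellular ATP by CellTiter-Glo luminescence. Normalized to DMSO and 100 uM tamoxifen; AC50 from Hill fit of qHTS concentration-response.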

[4] = biological target: Mitogen-activated protein kinase 10 (Mus musculus) (UniProt Q61831); test: JNK3 AlphaScreen Assay (AID 530; active = well fitted curve in either direction with a large enough effect, not every such curve was filed as active; inconclusive = small, poorly fitted or top-dose-only effect, or another doubt;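 note: kinase came from lysate of stimulated human HepG2 cells; signal reports phosphorylation of biotinylated GST-cJun 1-79 at Ser73 with 10 µM ATP; potency is the fitted concentration of half-maximal effect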); conditions: JNK3 lysate, c-Jun phosphorylation; activity change, negative = inhibition: at 57.1 µM (top of the series)
Summary of the method: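 Biotinylated GST-cJun(1-79) served as substrate for JNK3 in HepG2 lysates stimulated with IL-1beta and TNF-alpha. ATP was 10 uM final, pH 7.6. Ser73 phosphorylation was quantified by AlphaScreen (680 nm excitation).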

[5] = Cell Viability - N2a (AID 540); conditions: N2a mouse neuroblastoma cell viability; activity change, negative = cytotoxicity: at 92.2 µM (top of the series); note: potency is the fitted concentration of half-maximal effect; nearly all actives have a fitted effect of over 45% in size
Summary of the method: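 N2a mouse neuroblastoma, 1500 cells/well, 5 hr settle; compound 40 hr, 37 °C; CellTiter-Glo 20 min RT; luminescence; Hill-fit AC50.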

[6] = Cell Viability - NIH 3T3 (AID 541); conditions: NIH 3T3 cell viability, qHTS; activity change, negative = cytotoxicity: at 92.2 µM (top of the series);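 note: plate controls were DMSO alone for no effect and tamoxifen positive control for full effect; nearly all actives have a fitted effect of over 25% in size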
Summary of the method: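 qHTS format; 40 hr compound exposure, 37 °C; CellTiter-Glo luminescence (cellular ATP) read-out after 20 min at RT. Decrease in ATP = cytotoxicity; AC50 from standard Hill fit.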

[7] = Cell Viability - HUV-EC-C (AID 542); note: % is set by controls: 0 for no effect and ±100 for the full control effect; nearly all actives have a fitted effect of over 35% in size
Summary of the method: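 Luminescent ATP read-out (CellTiter-Glo, 20 min room temperature) after 40 hr compound treatment of HUV-EC-C cells at 37 °C. Concentration-response data fitted with the standard Hill equation to give AC50; tamoxifen and doxorubicin served as positive controls.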

[8] = Cell Viability - H-4-II-E (AID 543); note: potency is the fitted concentration of half-maximal effect; nearly all actives have a fitted effect of over 35% in size
Summary of the method: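 qHTS, rat hepatoma H-4-II-E, 1500 cells/well; 40 hr compound exposure, 37 °C; CellTiter-Glo ATP luminescence after 20 min RT; AC50 by standard Hill fit.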

[9] = Cellular Toxicity (caspase-3) NIH 3T3 (AID 666); conditions: NIH 3T3 caspase-3 activation, apoptosis/toxicity;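 note: potency is the fitted concentration of half-maximal effect; caspase signal read after 16 h compound exposure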
Summary of the method: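 NIH 3T3, 1000 cells/well, 5 hr settle then 16 hr compound at 37°C; Caspase-Glo 3/7, 20 min RT, luminescence. DMSO = basal, 100 uM tamoxifen = 100%. Hill-equation AC50, qHTS.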

[10] = qHTS Assay for Identification of Small Molecule Agonists for Hypoxia Response Element Signaling Pathway (AID 914; active = well fitted activation curve with a large enough effect in the signal ratio, with a control signal flat, not every such curve was filed as active; inconclusive = small, poorly fitted or top-dose-only effect, or effect the other way, or a change in a side signal; the % refers to the signal ratio; note: potency is the fitted concentration of half-maximal effect); conditions: ME-180 (cervical carcinoma) HRE-bla reporter, beta-lactamase ratio, CoCl2, 17 h; activation: active compounds read high
Summary of the method: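 HRE-bla ME-180 cells with beta-lactamase reporter under hypoxia response element, compounds with EC50 CoCl2 for 17 hours at 37 C. CCF4 substrate, 460nm/530nm emission ratio gave %Activity; AC50 from titration series.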

[11] = MultiTox-Fluor Cytotoxicity Assay - LYMP1-003 - Dead Cells (AID 961);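 note: 0% = DMSO and 100% = tetraoctylammonium bromide; nearly all actives have a fitted effect of over 70% in size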
Summary of the method: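 Human lymphoblastoid LYMP1-003 cells (2500/well) were treated with compounds for 16 hr at 37 C in complete medium. Dead-cell protease release was read by bis-AAF-R110 fluorescence (Ex/Em 485/520). AC50 came from Hill fits, normalized to DMSO and 15 uM tetraoctylammonium bromide.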

[12] = Cell Viability - LYMP2-005 (AID 967);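 note: plate controls were DMSO only for no effect and 92 µM tetraoctylammonium bromide control for full effect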
Summary of the method: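 Human lymphoblastoid LYMP2-005 cells, 2,500 per well in complete medium, rested 5 h at 37C then compound-treated 24 h at 37C. Intracellular ATP read by CellTiter-Glo luminescence after 30 min at room temperature; AC50 from Hill-equation fits of concentration-response data.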

[13] = Cell Viability - LYMP2-009 (AID 968); note: potency is the fitted concentration of half-maximal effect; nearly all actives have a fitted effect of over 55% in size
[14] = Cell Viability - LYMP2-015 (AID 971); note: potency is the fitted concentration of half-maximal effect; nearly all actives have a fitted effect of over 55% in size
Summary of the method: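 qHTS cytotoxicity: 2500 cells/well, 5 hr 37 C, compound 24 hr 37 C, CellTiter-Glo 30 min RT, luminescence. Loss of ATP = toxicity; AC50 via standard Hill fit.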

[15] = Cell Viability - LYMP2-002 (AID 977); conditions: LYMP2-002 lymphoblastoid cell viability, qHTS; activity change, negative = cytotoxic: at 92.2 µM (top of the series);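 note: compound exposure lasted 24 h at 37 °C; plate controls were DMSO only for no effect and 92 µM tetraoctylammonium bromide for full effect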
Summary of the method: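 In this qHTS viability screen, 2500 human lymphoblastoid cells per well receive compound for 24 hr at 37 C, and luciferase-based ATP luminescence gives the viability signal. Tetraoctylammonium bromide serves as positive control.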

[16] = Cell Viability - LYMP2-007 (AID 979); conditions: LYMP2-007 lymphoblastoid cell viability; activity change, negative = cytotoxicity: at 92.2 µM (top of the series);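 note: potency is the fitted concentration of half-maximal effect; cells exposed to compound for 24 h before reading; nearly all actives have a fitted effect of over 60% in size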
Summary of the method: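 qHTS cytotoxicity: 2500 cells/well, 5 hr 37 C settle, compound 24 hr 37 C, CellTiter-Glo 30 min RT, luminescence. Decrease in ATP = toxicity. AC50 by standard Hill equation; tetraoctylammonium bromide positive control.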

[17] = Cell Viability - LYMP2-008 (AID 980); conditions: LYMP2-008 lymphoblastoid cell viability, qHTS; note: potency is the fitted concentration of half-maximal effect; nearly all actives have a fitted effect of over 60% in size
Summary of the method: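 Luminescent ATP read-out (CellTiter-Glo, 30 min RT) after 24 hr compound exposure at 37 C of human lymphoblastoid cells in complete medium. Decrease in ATP taken as cytotoxicity; AC50 derived by standard Hill fit of qHTS concentration-response data.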

[18] = Cell Viability - LYMP2-020 (AID 986); conditions: activity change, negative = viability loss: at 92.2 µM (top of the series);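 note: plate controls were DMSO only for no effect and tetraoctylammonium bromide at 92 µM for full effect; nearly all actives have a fitted effect of over 55% in size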
Summary of the method: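 qHTS, 2500 cells/well; 5 hr then 24 hr compound exposure, 37 C; CellTiter-Glo luminescence after 30 min RT; ATP decrease taken as cytotoxicity; AC50 via Hill equation; tetraoctylammonium bromide positive control.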

[19] = qHTS Assay for Identification of Small Molecule Inducers of Hypoxia Response (AID 2120; active = well fitted curve in the direction sought with a large enough effect in the signal ratio, with a control signal flat, not every such curve was filed as active; inconclusive = small, poorly fitted or top-dose-only effect, or a change in a side signal; inactive = no such curve, though single readings can be large or run the other way; the % refers to the signal ratio; note: 0% is about no effect); conditions: hypoxia response reporter cells, beta-lactamase ratio readout; activation: at 104 µM (top of the series)
Summary of the method: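 Read-out: CCF4 FRET emission ratio 460nm/530nm (excitation 405nm), converted to %Activity, with AC50 fitted across a compound titration. ME-180 cells carried an HRE-driven beta-lactamase reporter; compound exposure 17 h, 37 degrees C.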

[20] = biological target: Estrogen receptor (Homo sapiens) (UniProt P03372); test: qHTS assay for small molecule antagonists of estrogen receptor alpha signaling (AID 588513; active = well fitted curve in the direction sought with a large enough effect in the signal ratio, with a control signal flat, not every such curve was filed as active; inconclusive = small, poorly fitted or top-dose-only effect, or effect the other way, or a change in a side signal; inactive = no such curve, though single readings can be large or run the other way; the % refers to the signal ratio; note: % is set by controls: 0 for no effect and ±100 for the full control effect); conditions: ER-alpha-UAS-bla HEK293, beta-lactamase ratio, antagonist mode
Chain of UniProt P03372 (P03372 whole entry, looked up): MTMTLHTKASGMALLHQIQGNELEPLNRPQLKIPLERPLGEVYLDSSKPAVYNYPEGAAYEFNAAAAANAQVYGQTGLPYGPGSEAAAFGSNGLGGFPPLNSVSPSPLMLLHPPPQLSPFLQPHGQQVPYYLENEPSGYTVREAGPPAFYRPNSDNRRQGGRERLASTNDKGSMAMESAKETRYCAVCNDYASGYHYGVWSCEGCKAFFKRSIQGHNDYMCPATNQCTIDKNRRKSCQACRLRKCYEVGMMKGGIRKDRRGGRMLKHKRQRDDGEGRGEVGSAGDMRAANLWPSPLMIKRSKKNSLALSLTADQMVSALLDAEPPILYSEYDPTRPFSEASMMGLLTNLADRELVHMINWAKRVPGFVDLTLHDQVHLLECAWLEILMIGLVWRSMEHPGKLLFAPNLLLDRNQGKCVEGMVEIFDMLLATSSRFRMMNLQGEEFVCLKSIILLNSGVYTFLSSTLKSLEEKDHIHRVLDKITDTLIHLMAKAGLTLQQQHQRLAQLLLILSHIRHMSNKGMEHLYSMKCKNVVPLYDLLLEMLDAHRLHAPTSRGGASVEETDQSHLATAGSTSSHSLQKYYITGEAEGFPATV
Summary of the method: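 ER-alpha-UAS-bla GripTite HEK 293 cells in 2% charcoal/dextran-treated FBS medium; compounds titrated (1:2, duplicate), then stimulated with 0.5 nM 17-beta-estradiol for 18 h at 37C. CCF4 beta-lactamase fluorescence; Hill-fit IC50 and efficacy.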

[21] = biological target: Estrogen receptor (Homo sapiens) (UniProt P03372); test: qHTS assay for small molecule agonists of estrogen receptor alpha signaling (AID 588514; calls by dose curve; note: potency is the fitted concentration of half-maximal effect; nearly all actives have a fitted effect of over 70% in size); conditions: ER-alpha-UAS-bla HEK293, beta-lactamase ratio, 18 h; activation: at 76.8 µM (top of the series), percent of full estradiol response, vehicle zero
Summary of the method: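 Read-out: CCF4 fluorescence from a beta-lactamase reporter in ER-alpha-UAS-bla HEK 293 cells after 18 hrs of compound exposure at 37 C. Normalized to 20 nM 17-beta-estradiol (100%) and DMSO (0%).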

[22] = biological target: Glucocorticoid receptor (Homo sapiens) (UniProt P04150); test: qHTS assay for small molecule antagonists of glucocorticoid receptor signaling (AID 588533; active = well fitted inhibition curve with a large enough effect in the signal ratio, with a control signal flat, not every such curve was filed as active; inconclusive = small, poorly fitted or top-dose-only effect, or effect the other way, or a change in a side signal; the % refers to the signal ratio;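 note: cells stimulated with 2 nM dexamethasone as agonist; % is set by controls: 0 for no effect and ±100 for the full control effect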); conditions: HeLa MMTV-bla, GRE beta-lactamase ratio, antagonist mode, 18 h; activity change, negative = inhibition: at 76.8 µM (top of the series)
[23] = biological target: Peroxisome proliferator-activated receptor delta (Homo sapiens) (UniProt Q03181); test: qHTS assay for small molecule antagonists of peroxisome proliferator-activated receptor delta signaling (AID 588535; active = well fitted inhibition curve with a large enough effect in the signal ratio, with a control signal flat, not every such curve was filed as active; inconclusive = small, poorly fitted or top-dose-only effect, or effect the other way, or a change in a side signal; inactive = no such curve, though single readings can be large or run the other way; the % refers to the signal ratio; note: potency is the fitted concentration of half-maximal effect); conditions: HEK293T PPARd-UAS-bla, beta-lactamase FRET ratio, 18 h; activity change, negative = inhibition: at 76.7 µM (top of the series)
Chain of UniProt Q03181 (Q03181 whole entry, looked up): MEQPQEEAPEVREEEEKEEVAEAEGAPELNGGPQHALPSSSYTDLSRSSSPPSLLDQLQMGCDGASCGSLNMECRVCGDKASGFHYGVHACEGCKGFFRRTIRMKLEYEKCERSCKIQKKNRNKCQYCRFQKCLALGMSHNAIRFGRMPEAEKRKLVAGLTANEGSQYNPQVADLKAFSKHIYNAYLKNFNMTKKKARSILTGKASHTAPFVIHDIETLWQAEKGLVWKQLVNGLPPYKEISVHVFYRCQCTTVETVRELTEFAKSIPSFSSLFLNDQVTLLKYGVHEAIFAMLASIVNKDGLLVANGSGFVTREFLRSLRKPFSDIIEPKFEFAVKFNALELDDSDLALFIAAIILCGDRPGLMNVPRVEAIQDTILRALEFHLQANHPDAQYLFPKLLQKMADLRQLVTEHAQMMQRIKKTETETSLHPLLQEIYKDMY
Summary of the method: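 Compounds tested in titration on PPAR-delta-UAS-bla HEK293T cells grown in charcoal/dextran-stripped serum (2%); beta-lactamase activity read via CCF4 emission at 460 and 530 nm.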

[24] = biological target: Peroxisome proliferator-activated receptor gamma (Homo sapiens) (UniProt P37231); test: qHTS assay for small molecule antagonists of peroxisome proliferator-activated receptor gamma signaling (AID 588537; active = well fitted inhibition curve with a large enough effect in the signal ratio, with a control signal flat, not every such curve was filed as active; inconclusive = small, poorly fitted or top-dose-only effect, or effect the other way, or a change in a side signal; the % refers to the signal ratio;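 note: reporter cells co-stimulated with 50 nM rosiglitazone agonist during compound treatment; % of control where 0% means no effect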); conditions: HEK293 PPARg-UAS-bla, beta-lactamase ratio, antagonist mode
Summary of the method: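 HEK293 cells, PPAR-gamma-UAS-bla, 3000/well. Pre-incubation 6-6.5 h, 37 C. Compound titration with rosiglitazone 50 nM final, 16 h. CCF4 dye, 2 h RT, dual-emission fluorescence.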

[25] = biological target: Retinoic acid receptor RXR-alpha (Homo sapiens) (UniProt P19793); test: qHTS assay for small molecule agonists of retinoid X receptor alpha signaling (AID 588544; calls by dose curve; note: potency is the fitted concentration of half-maximal effect); conditions: HEK293T RXRa-UAS-bla, beta-lactamase reporter, 18 h; activation: at 76.7 µM (top of the series) unless noted
Chain of UniProt P19793 (P19793 whole entry, looked up): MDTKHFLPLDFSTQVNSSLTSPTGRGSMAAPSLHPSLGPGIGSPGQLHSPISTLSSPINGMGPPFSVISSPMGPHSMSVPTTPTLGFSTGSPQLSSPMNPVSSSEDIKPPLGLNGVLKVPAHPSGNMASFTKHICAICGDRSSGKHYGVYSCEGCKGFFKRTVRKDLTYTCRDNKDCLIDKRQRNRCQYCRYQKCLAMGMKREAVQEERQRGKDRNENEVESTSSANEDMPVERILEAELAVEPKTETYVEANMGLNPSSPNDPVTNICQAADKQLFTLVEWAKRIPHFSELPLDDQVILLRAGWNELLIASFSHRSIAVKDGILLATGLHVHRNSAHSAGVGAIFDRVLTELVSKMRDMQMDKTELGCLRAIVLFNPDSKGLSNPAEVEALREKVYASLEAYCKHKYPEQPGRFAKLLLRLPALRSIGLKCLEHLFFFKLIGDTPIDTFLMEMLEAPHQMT

[26] = biological target: Retinoic acid receptor RXR-alpha (Homo sapiens) (UniProt P19793); test: qHTS assay for small molecule antagonists of retinoid X receptor alpha signaling (AID 588546; active = well fitted inhibition curve with a large enough effect in the signal ratio, with a control signal flat, not every such curve was filed as active; inconclusive = small, poorly fitted or top-dose-only effect, or effect the other way, or a change in a side signal; inactive = no such curve, though single readings can be large or run the other way; the % refers to the signal ratio;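 note: cells stimulated with 9-cis-retinoic acid as agonist; % is set by controls: 0 for no effect and ±100 for the full control effect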); conditions: HEK293T RXRa-UAS-bla, beta-lactamase ratio, antagonist mode
Summary of the method: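 Beta-lactamase reporter inhibition, read as CCF4 fluorescence ratio (ex 405, em 460/530 nm) after 2 h at RT. HEK293T UAS-bla cells, 2500/well, were stimulated with 9-cis-RA at 500 or 100 nM final alongside test compound for 18 h at 37 C.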

[27] = biological target: Thyroid hormone receptor beta (Homo sapiens) (UniProt P10828); test: qHTS assay for small molecule antagonists of thyroid hormone receptor beta signaling (AID 588547; active = well fitted inhibition curve with a large enough effect in the signal ratio, with a control signal flat, not every such curve was filed as active; inconclusive = small, poorly fitted or top-dose-only effect, or effect the other way, or a change in a side signal; the % refers to the signal ratio; note: potency is the fitted concentration of half-maximal effect;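 for activity change % (negative = inhibition): cells stimulated with 0.4 nM T3 agonist during compound exposure; % is set by controls: 0 for no effect and ±100 for the full control effect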); conditions: TR-UAS-bla HEK293, beta-lactamase ratio, antagonist mode, 18 h
Chain of UniProt P10828 (P10828 whole entry, looked up): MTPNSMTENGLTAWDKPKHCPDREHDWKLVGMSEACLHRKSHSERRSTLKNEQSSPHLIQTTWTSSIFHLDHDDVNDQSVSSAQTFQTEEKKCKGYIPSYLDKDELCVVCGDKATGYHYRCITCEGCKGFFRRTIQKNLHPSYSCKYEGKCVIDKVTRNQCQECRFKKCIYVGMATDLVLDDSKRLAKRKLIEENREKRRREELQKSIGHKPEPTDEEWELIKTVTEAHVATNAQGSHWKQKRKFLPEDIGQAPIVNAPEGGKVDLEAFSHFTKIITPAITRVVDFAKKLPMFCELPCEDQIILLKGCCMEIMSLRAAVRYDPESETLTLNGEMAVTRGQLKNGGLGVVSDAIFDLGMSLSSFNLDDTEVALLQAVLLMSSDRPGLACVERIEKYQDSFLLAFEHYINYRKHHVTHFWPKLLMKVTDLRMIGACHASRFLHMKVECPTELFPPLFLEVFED
Summary of the method: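 TR-UAS-bla GripTite HEK293 cells in 2% charcoal/dextran FBS medium were preincubated 4 h at 37 C, given compound (0.59 nM to 92 uM) plus 0.4 nM T3 (final) for 18 h, then CCF4 for 2 h at RT; Hill fit gave IC50.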
Tags give direction and shape of the fitted curve or compound fluorescence and quenching.

O=C1c2ccccc2C(=O)C1c1ccc2ccccc2n1
inconclusive: Potency [2] 77.8 µM [partial curve] | Potency [3] 240 µM [partial curve] | Potency [4] 3.98 µM [inhibitor, full curve] | Potency [8] 39.8 µM [falling, partial curve] | Potency [9] 2 µM [falling, full curve] | Potency [10] 398 nM [inhibitor, full curve] | Potency [13] 50.1 µM [cytotoxic, single point] | Potency [14] 15.8 µM [cytotoxic, partial curve, poor fit] | Potency [17] 39.8 µM [cytotoxic, partial curve] | activity, negative = inhibition ([20]; activity, negative = inhibition: at 76.9 µM (top of the series) unless noted) -34.5% | activity change, negative = inhibition [22] -6.98% | Potency [23] 39.8 µM [fluorescent, side channel, partial curve] and 12.6 µM [activator, partial curve, poor fit] | activity, negative = inhibition ([24]; activity, negative = inhibition: at 76.8 µM (top of the series)) 7.43% | Potency [25] 8.91 µM [side channel, rising, partial curve, poor fit] | max response [26] 32.7% | Potency [27] 44.7 µM [fluorescent, side channel, single point]
inactive: Potency [7] | Potency [11] | Potency [12] | Potency [15] | Potency [18] | Potency [19] | activity, negative = inhibition ([20]; at 36 µM (top of the series)) 10.9% | activity, negative = inhibition ([24]; at 76.8 µM (top of the series)) 3.02% | activity change % (negative = inhibition) [27] -15.6%
active: Potency [1] 33.1 µM | Potency [5] 31.6 µM | activity change, negative = cytotoxicity [6] -106% | Potency [16] 39.8 µM | Potency [21] 1 µM
